# Like-named read-outs stand apart in the source and are kept apart here.
# How the values were obtained:
# HSV-1 [1] = tested on: HSV-1
# HSV-1 [2] = assay: microbe, parasite or virus in culture; conditions: for log reduction at 1000 µg/mL / log reduction at 2000 µg/mL / log reduction at 4000 µg/mL: Human alphaherpesvirus 1, read-out: Reduction in HSV-1 titer
# HSV-1 [3] = assay: microbe, parasite or virus in culture; conditions: Human alphaherpesvirus 1, read-out: Reduction in HSV-1 titer
# E. coli [4] = assay: microbe, parasite or virus in culture; conditions: Escherichia coli, read-out: Reduction of bacterial concentration, E. coli
# H. influenza [5] = assay: microbe, parasite or virus in culture; conditions: read-out: Reduction of bacterial concentration, H. influenza
# S. epidermidis [6] = assay: microbe, parasite or virus in culture; conditions: Staphylococcus epidermidis, read-out: Reduction of bacterial concentration, S. epidermidis
# VSV = assay: microbe, parasite or virus in culture; assay type: cell-based; conditions: Vesicular stomatitis virus
# E. coli [7] = conditions: 2 mg/ml
# S. enteritidis [8] = conditions: 2 mg/ml
# H. influenza [9] = conditions: 2 mg/ml
# S. epidermidis [10] = tested on: S. epidermidis
# S. enteritidis [11] = assay: microbe, parasite or virus in culture; conditions: Salmonella enterica, read-out: Reduction of bacterial concentration, S. enteritidis
Compound,log reduction at 1000 µg/mL (HSV-1 [2]),log reduction at 2000 µg/mL (HSV-1 [2]),log reduction at 4000 µg/mL (HSV-1 [2]),log reduction at 500 µg/mL (HSV-1 [3]),log reduction at 1000 µg/mL (HSV-1 [3]),log reduction at 2000 µg/mL (HSV-1 [3]),log reduction at 2000 µg/mL (E. coli [4]),log reduction at 2000 µg/mL (H. influenza [5]),log reduction at 2000 µg/mL (S. epidermidis [6]),log reduction at 2000 µg/mL (S. enteritidis [11]),further results
"CCCCCCCCCC(=O)OCC(O)CO (racemic) [Monocaprin (10:0), 1-Monodecanoyl-rac-glycerol]",0.8,1.8,≥ 4,0,0.3,2.3,≥ 5,≥ 8,≥ 4,,"effectiveness relative to monolinolein (HSV-1 [1]): over 60 -fold; log reduction at 3000 µg/mL (HSV-1 [2]; Human alphaherpesvirus 1, read-out: kill of enveloped virus in human serum): ≥ 4"
"CCCCCCCC(=O)OCC(O)CO (racemic) [Monocaprylin (8:0), 1-Monocapryloyl-rac-glycerol]",,,,,,,≥ 5,≥ 8,≥ 4,,
"CCCCCCCCCCCC(=O)OCC(O)CO (racemic) [Monolaurin (12:0), 1-Monolauroyl-rac-glycerol]",0.8,1.5,2,0.3,0.3,1,0,≥ 8,≥ 4,0,"log reduction at 7500 µM (VSV; read-out: Reduction in VSV Titer, 7.5 mM, no sodium taurocholate, human serum): 0; log reduction at 15000 µM (VSV; read-out: Reduction in VSV Titer, 15 mM, no sodium taurocholate, human serum): 0; effect on E. coli in words (E. coli [7]): unaffected; effect on S. enteritidis in words (S. enteritidis [8]): unaffected; inactivation of H. influenzae in words (H. influenza [9]): inactivated; effect on bacteria (scanning electron micrographs) (S. epidermidis [10]): completely disintegrated"
"CCCCC/C=C\C/C=C\CCCCCCCC(=O)OC[C@@H](O)CO [Monolinolein (18:2), Monolinolein]",,,,0,0.3,0.5,,,,,
"CCCCCCCC/C=C\CCCCCCCC(=O)OCC(O)CO (stereo not drawn) [Monoolein (18:1), Monoolein]",,,,0,0,0,0,,≥ 4,0,
Mono-eicosenoin [Mono-eicosenoin (20:1)],,,,,,,,,,,"Reduction of bacterial concentration, E. coli (E. coli [7]): 0 log10; Reduction of bacterial concentration, S. enteritidis (S. enteritidis [8]): 0 log10; Reduction of bacterial concentration, S. epidermidis (S. epidermidis [10]; 2 mg/ml): ≥ 4.0 log10"
